From the supplement of paper PMC12217912
This is one part of the list. Sequences were assembled here from the parent chain. Values near 0.05 are background.

B1: TEV protease; numbered along this chain (parent)
chain: MGESLFKGPRDYNPISSSICHLTNESDGHTTSLYGIGFGPFIITNKHLFRRNNGTLVVQSLHGVFKVKDTTTLQQHLVDGRDMIIIRMPKDFPPFPQKLKFREPQREERICLVTTNFQTKSMSSMVSDTSCTFPSGDGIFWKHWIQTKDGQCGSPLVSTRDGFIVGIHSASNFTNTNNYFTSVPKNFMELLTNQEAQQWVSGWRLNADSVLWGGHKVFMVKPEEPFQPVKEATQL

Variants of: B1
Test: raw area under fraction-flipped curve 0-4 h after induction (AUC4h, not background-subtracted), DNA-recorder readout of cleavage of the substrate (dimensionless); higher = more cleavage of the substrate by the protease variant
Conditions: temperature: 34 °C; time window: 0-4 h after rhamnose induction
Experimental: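 In vivo DNA recorder in E. coli TOP10(DE3) ΔrhaA at 34 °C. Each TEVp single-site mutant (parent TEVp 0) is paired with a single-site variant of the 7-mer TEVs (canonical ENLYFQ|S). The substrate sits between flexible linkers in a Bxb1-sfGFP-TEVs-SsrA fusion, so cleavage stabilises Bxb1 and speeds flipping of a recombination array, read by NGS. The value is the raw area under the fraction-flipped curve over 0-4 h after rhamnose induction (AUC4h), with ≥20 reads per time point. It is not background-subtracted; inactive controls average about 0.047.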
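Further: Bxb1 expression induced with 0.2% (w/v) L-rhamnose at OD600 near 0.5, cultures sampled hourly, flipped fraction per protease–substrate barcode pair counted by paired-end Illumina sequencing.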

| Variant | area with substrate EALYFQS | area with substrate EGLYFQS | area with substrate EILYFQS | area with substrate EKLYFQS | area with substrate EMLYFQS | area with substrate EPLYFQS | area with substrate ERLYFQS | area with substrate ESLYFQS | area with substrate ETLYFQS | area with substrate EYLYFQS | area with substrate EHLYFQS | area with substrate ELLYFQS | area with substrate ECLYFQS | area with substrate EFLYFQS | area with substrate EWLYFQS | area with substrate EDLYFQS | area with substrate EQLYFQS | area with substrate EVLYFQS | area with substrate EELYFQS |
| --- | --- | --- | --- | --- | --- | --- | --- | --- | --- | --- | --- | --- | --- | --- | --- | --- | --- | --- | --- |
| V157C | 0.106 | 0.0829 | 0.106 | 0.0989 | 0.134 | 0.104 | 0.104 | 0.0709 | 0.148 | 0.0951 |  |  |  |  |  |  |  |  |  |
| V157K | 0.077 |  | 0.0671 | 0.0673 | 0.0555 |  |  |  | 0.0933 |  | 0.0232 | 0.0469 |  |  |  |  |  |  |  |
| V157T | 0.107 |  |  |  |  |  |  |  |  |  |  |  | 0.0902 | 0.0971 | 0.0878 |  |  |  |  |
| S158C | 0.0797 | 0.069 | 0.0874 |  |  |  | 0.0899 | 0.0937 |  |  |  | 0.0933 | 0.0887 | 0.111 | 0.0853 | 0.116 | 0.108 | 0.0997 |  |
| S158T | 0.108 |  |  | 0.092 |  | 0.0962 |  | 0.106 |  |  |  |  | 0.0801 |  |  |  | 0.0782 | 0.0983 |  |
| T159H | 0.156 | 0.0881 |  |  |  |  |  |  |  |  |  | 0.107 | 0.126 |  |  | 0.195 |  |  |  |
| G162E | 0.151 | 0.085 |  | 0.1 | 0.0959 | 0.0911 |  | 0.0825 |  |  | 0.125 |  | 0.0905 |  |  | 0.111 | 0.116 | 0.0838 | 0.106 |
| G162Y | 0.109 |  | 0.0809 | 0.0936 | 0.0868 | 0.0937 |  | 0.0961 | 0.0901 |  |  | 0.0774 | 0.105 |  | 0.0636 | 0.105 | 0.107 | 0.0917 | 0.0977 |
| V165H | 0.0497 |  |  | 0.0199 |  | 0.0896 | 0.0548 |  |  |  |  |  |  |  | 0.0299 | 0.0531 |  | 0.0562 |  |
| V165K | 0.052 | 0.0557 |  | 0.0581 |  |  | 0.0484 | 0.0591 | 0.0622 | 0.0597 | 0.0485 |  |  | 0.0589 | 0.0662 | 0.046 | 0.064 |  |  |
| V165Q | 0.0465 |  |  |  |  | 0.0475 | 0.0678 | 0.0493 |  | 0.0449 | 0.106 | 0.0719 | 0.0469 |  |  | 0.0595 |  | 0.0692 | 0.0534 |
| I167L | 0.0879 | 0.0782 | 0.0922 |  |  |  | 0.0974 | 0.0958 | 0.106 |  | 0.0944 |  |  |  | 0.0949 |  | 0.11 | 0.105 | 0.102 |
| I167M | 0.108 |  | 0.0865 | 0.0958 | 0.117 |  | 0.0761 | 0.0861 |  |  |  |  | 0.0755 |  | 0.08 | 0.107 |  | 0.0763 |  |
| I167P | 0.0493 |  |  | 0.021 | 0.0366 |  |  | 0.0481 |  | 0.0379 | 0.0537 | 0.0535 | 0.0388 | 0.0357 | 0.0465 |  | 0.0586 | 0.0584 | 0.0393 |
| I167Q | 0.0721 |  | 0.0795 | 0.0751 | 0.0969 |  | 0.0721 | 0.0714 |  | 0.0746 | 0.0903 |  |  |  | 0.0739 |  |  | 0.0806 |  |
| S169H | 0.0504 |  | 0.0554 | 0.0698 | 0.0573 | 0.0603 | 0.05 | 0.0641 |  |  | 0.0729 | 0.064 | 0.0716 | 0.0627 |  |  | 0.0672 | 0.0873 | 0.055 |
| S169V | 0.0624 | 0.0496 | 0.0593 | 0.0386 | 0.0465 | 0.0624 |  | 0.0462 | 0.0578 |  |  |  |  |  | 0.0716 | 0.0902 | 0.0846 |  |  |

| Variant | area with substrate EALYFQS | area with substrate EGLYFQS | area with substrate EILYFQS | area with substrate EKLYFQS | area with substrate EMLYFQS | area with substrate EPLYFQS | area with substrate ERLYFQS | area with substrate ESLYFQS | area with substrate ETLYFQS | area with substrate EYLYFQS | area with substrate EHLYFQS | area with substrate ELLYFQS | area with substrate ECLYFQS | area with substrate EFLYFQS | area with substrate EWLYFQS | area with substrate EDLYFQS | area with substrate EQLYFQS | area with substrate EVLYFQS | area with substrate EELYFQS |
| --- | --- | --- | --- | --- | --- | --- | --- | --- | --- | --- | --- | --- | --- | --- | --- | --- | --- | --- | --- |
| A170N | 0.0628 | 0.0641 | 0.0367 | 0.0605 |  |  | 0.0489 | 0.0495 | 0.0656 |  |  |  | 0.0621 |  |  | 0.0466 |  |  | 0.0651 |
| S171N | 0.0634 |  | 0.0558 |  | 0.0671 |  | 0.0713 | 0.0501 |  |  | 0.0746 | 0.0578 | 0.0454 | 0.0918 | 0.0974 | 0.0585 | 0.052 | 0.0895 |  |
| F173V | 0.0908 |  |  | 0.107 | 0.107 | 0.0971 | 0.0813 | 0.0898 | 0.16 |  |  | 0.0961 | 0.11 | 0.0967 | 0.076 |  | 0.146 | 0.107 |  |
| N177F | 0.072 | 0.0516 | 0.0722 | 0.0709 | 0.0635 | 0.0378 | 0.0666 | 0.0615 |  | 0.083 |  | 0.0629 | 0.0809 |  | 0.0724 |  | 0.0669 | 0.0767 | 0.067 |
| N178L | 0.199 |  |  | 0.12 |  |  | 0.091 | 0.0848 | 0.18 |  |  |  | 0.0961 |  |  |  | 0.149 | 0.113 |  |
| Y179G | 0.0377 |  |  |  | 0.0681 |  |  |  | 0.0678 |  |  | 0.0592 | 0.0457 | 0.0609 |  | 0.0657 | 0.0425 |  |  |
| Y179H | 0.069 | 0.0667 | 0.0601 |  |  | 0.072 |  | 0.065 |  |  | 0.0578 | 0.0504 | 0.0535 |  | 0.0648 | 0.0711 | 0.0583 |  | 0.0515 |
| Y179P | 0.0499 | 0.0531 | 0.0812 |  | 0.0544 | 0.0591 | 0.0466 | 0.0559 | 0.0515 | 0.0484 | 0.0526 |  | 0.0505 | 0.0594 | 0.0661 |  |  |  | 0.0506 |
| F180T | 0.056 | 0.0376 | 0.0384 | 0.0665 |  | 0.0567 |  |  | 0.052 |  |  |  | 0.0734 |  |  |  |  | 0.0554 | 0.0474 |
| T181D | 0.0617 |  |  |  | 0.0786 |  | 0.0869 | 0.0679 |  |  |  |  |  | 0.0624 | 0.0619 |  | 0.0673 | 0.0594 |  |
| T181W | 0.0734 | 0.0924 | 0.0496 |  |  | 0.0463 | 0.0764 | 0.0645 |  |  |  |  |  |  |  |  | 0.0596 |  | 0.0727 |
| K185D | 0.112 |  |  |  | 0.12 |  | 0.113 |  | 0.124 |  |  |  |  |  |  |  |  |  | 0.117 |
| K185Y | 0.119 | 0.0906 | 0.0727 | 0.111 | 0.105 | 0.184 | 0.0939 | 0.0933 |  |  |  | 0.0668 | 0.102 |  | 0.135 | 0.123 | 0.118 | 0.0999 | 0.0912 |
| F187K | 0.0582 | 0.0937 | 0.045 |  |  | 0.0593 | 0.0594 | 0.0671 |  |  |  | 0.0397 | 0.06 |  | 0.0627 |  |  | 0.036 |  |
| F187S | 0.136 | 0.0653 | 0.0688 | 0.0623 |  |  | 0.0539 | 0.061 |  | 0.0775 |  |  | 0.0628 |  | 0.066 |  | 0.0565 | 0.0497 | 0.0584 |
| F187V | 0.138 | 0.0726 |  | 0.0925 |  | 0.151 |  | 0.087 |  |  |  |  | 0.0607 |  | 0.136 | 0.153 |  |  |  |
